Consider 24 compounds from ChEMBL document CHEMBL5046242, “Investigation of Janus Kinase (JAK) Inhibitors for Lung Delivery and the Importance of Aldehyde Oxidase Metabolism” (J Med Chem, 2022).

As a reminder, the solubility is how much of the substance goes into solution per volume. High values mean much dissolved substance, low ones little dissolved substance. As usually defined, the Papp is the rate of passage across a membrane or cell layer, normalised by area and donor concentration. Low readings indicate slow passage, high ones fast passage. Broadly, the pIC50 is −log10 of the IC50, conventionally taken in molar units. A higher pIC50 goes with a small IC50. What is called solubility (kinetic) is solubility judged after dilution from a stock solution rather than from solid. By CL/F is commonly meant the apparent clearance, not corrected for the fraction that reaches the circulation. Usually half-life stands for the time needed for the level to fall by half in the phase considered. Read a high half-life as slow decline. In general, thermodynamic solubility refers to the concentration in solution at equilibrium with solid.

Data set [1] can be described thus: physchem. The settings on record: buffer, pH 6.5.
A short description of data set [2]: in vitro. Particulars: PAMPA, pH 7.4. (In general: PAMPA measures passive passage across an artificial lipid membrane.)
The target of data set [3] is Tyrosine-protein kinase JAK1 (Homo sapiens, UniProt P23458). The data set is classed as cell-based.
Chain of Tyrosine-protein kinase JAK1 (P23458 whole entry): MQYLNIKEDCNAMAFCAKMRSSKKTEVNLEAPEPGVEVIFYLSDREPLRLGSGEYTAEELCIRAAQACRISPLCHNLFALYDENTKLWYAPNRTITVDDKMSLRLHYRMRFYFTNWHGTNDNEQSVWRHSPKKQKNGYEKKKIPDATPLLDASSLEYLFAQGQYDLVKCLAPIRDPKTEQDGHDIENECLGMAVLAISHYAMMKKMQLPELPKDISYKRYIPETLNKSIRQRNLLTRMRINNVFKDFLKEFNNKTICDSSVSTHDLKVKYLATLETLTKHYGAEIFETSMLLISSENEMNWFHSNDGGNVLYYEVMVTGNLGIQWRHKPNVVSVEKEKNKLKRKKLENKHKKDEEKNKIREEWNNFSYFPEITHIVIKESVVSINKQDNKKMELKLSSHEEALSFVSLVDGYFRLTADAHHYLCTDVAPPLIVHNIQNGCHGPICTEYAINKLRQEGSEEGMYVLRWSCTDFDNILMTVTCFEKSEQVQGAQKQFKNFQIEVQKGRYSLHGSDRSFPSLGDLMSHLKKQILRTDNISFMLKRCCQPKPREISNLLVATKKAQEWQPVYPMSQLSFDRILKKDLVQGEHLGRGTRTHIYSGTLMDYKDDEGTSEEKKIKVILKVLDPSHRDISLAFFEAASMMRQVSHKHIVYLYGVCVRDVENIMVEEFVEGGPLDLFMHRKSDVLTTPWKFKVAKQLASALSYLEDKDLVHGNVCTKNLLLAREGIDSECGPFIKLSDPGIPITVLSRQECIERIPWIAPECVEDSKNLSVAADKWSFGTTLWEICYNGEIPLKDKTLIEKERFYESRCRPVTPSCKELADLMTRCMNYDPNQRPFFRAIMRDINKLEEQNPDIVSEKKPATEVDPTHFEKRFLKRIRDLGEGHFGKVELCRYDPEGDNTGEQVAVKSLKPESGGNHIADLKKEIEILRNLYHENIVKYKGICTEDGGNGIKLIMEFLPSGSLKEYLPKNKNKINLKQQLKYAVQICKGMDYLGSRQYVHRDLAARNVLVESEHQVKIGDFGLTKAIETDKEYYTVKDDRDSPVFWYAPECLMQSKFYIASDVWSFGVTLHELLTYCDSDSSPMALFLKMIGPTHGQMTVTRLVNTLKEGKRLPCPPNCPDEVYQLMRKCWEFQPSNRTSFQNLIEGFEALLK
The target in data set [4] is Non-receptor tyrosine-protein kinase TYK2 (Homo sapiens, UniProt P29597). The data set is classed as cell-based.
Chain of Non-receptor tyrosine-protein kinase TYK2 (P29597 whole entry): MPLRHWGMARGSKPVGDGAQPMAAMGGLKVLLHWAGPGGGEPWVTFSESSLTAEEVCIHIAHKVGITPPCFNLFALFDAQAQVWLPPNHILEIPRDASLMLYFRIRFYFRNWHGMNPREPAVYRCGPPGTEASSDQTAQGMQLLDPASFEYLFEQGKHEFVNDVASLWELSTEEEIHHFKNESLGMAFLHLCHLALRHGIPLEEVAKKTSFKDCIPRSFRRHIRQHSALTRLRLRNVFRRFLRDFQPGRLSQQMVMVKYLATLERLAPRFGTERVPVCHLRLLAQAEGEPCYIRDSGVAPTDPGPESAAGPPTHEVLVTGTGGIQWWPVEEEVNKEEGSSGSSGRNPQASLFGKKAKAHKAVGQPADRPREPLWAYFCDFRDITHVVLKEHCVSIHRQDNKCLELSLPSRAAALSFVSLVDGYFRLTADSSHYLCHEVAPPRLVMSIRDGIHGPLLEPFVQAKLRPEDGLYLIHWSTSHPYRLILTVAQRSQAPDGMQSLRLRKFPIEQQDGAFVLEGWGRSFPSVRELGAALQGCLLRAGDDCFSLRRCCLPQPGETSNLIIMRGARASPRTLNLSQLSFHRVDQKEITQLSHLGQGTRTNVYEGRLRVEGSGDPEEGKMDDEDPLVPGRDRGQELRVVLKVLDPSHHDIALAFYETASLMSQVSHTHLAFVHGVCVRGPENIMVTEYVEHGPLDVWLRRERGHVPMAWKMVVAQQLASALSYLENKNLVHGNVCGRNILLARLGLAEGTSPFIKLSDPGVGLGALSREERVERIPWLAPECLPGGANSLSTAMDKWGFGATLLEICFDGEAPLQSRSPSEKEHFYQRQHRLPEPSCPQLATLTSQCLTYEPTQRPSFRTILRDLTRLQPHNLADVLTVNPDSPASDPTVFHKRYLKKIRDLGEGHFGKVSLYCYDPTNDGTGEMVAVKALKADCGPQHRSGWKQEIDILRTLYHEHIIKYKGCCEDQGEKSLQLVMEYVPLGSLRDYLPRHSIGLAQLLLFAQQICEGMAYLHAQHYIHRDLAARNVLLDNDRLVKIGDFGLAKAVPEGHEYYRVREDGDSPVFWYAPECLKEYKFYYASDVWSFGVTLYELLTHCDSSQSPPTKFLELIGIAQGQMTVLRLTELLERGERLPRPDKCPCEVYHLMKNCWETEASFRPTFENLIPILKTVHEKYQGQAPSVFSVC
A short description of data set [5]: physchem. Particulars: buffer, pH 7.4.
Another data set concerns the target Aurora kinase B (Homo sapiens, UniProt Q96GD4).
A short description of data set [6]: in vivo. Particulars: mouse, inhaled or intranasal, 1 mg/kg.
Data set [7] can be described thus: in vivo. The settings on record: mouse, inhaled or intranasal, 1 mg/kg. This is another data set of the same source.
Data set [8] in a line: in vitro. The settings on record: human, cytosol.
A short description of data set [9]: in vitro. The settings on record: human, cytosol. This is another data set of the same source.
The nature of data set [10]: physchem. Particulars: buffer, pH 6.5. This is another data set of the same source.
Data set [11] is described as follows: physchem. The settings on record: Lung, pH 6.5.
Data set [12] concerns the target Vascular endothelial growth factor receptor 2 (Homo sapiens, UniProt P35968).

Structures are written as SMILES. pIC50: −log10 of the molar value. In brackets after ≈: the same amount, converted by molar mass.

Chain of Aurora kinase B (Q96GD4 whole entry): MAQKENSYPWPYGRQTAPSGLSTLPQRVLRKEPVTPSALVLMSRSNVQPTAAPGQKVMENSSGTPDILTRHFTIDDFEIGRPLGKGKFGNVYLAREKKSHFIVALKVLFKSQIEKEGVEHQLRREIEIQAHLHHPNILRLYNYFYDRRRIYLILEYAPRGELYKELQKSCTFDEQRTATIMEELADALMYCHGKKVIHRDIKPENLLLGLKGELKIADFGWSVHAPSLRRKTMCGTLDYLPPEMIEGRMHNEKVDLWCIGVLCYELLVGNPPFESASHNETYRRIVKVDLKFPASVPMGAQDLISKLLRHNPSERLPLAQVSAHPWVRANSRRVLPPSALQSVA
Chain of Vascular endothelial growth factor receptor 2 (P35968 whole entry): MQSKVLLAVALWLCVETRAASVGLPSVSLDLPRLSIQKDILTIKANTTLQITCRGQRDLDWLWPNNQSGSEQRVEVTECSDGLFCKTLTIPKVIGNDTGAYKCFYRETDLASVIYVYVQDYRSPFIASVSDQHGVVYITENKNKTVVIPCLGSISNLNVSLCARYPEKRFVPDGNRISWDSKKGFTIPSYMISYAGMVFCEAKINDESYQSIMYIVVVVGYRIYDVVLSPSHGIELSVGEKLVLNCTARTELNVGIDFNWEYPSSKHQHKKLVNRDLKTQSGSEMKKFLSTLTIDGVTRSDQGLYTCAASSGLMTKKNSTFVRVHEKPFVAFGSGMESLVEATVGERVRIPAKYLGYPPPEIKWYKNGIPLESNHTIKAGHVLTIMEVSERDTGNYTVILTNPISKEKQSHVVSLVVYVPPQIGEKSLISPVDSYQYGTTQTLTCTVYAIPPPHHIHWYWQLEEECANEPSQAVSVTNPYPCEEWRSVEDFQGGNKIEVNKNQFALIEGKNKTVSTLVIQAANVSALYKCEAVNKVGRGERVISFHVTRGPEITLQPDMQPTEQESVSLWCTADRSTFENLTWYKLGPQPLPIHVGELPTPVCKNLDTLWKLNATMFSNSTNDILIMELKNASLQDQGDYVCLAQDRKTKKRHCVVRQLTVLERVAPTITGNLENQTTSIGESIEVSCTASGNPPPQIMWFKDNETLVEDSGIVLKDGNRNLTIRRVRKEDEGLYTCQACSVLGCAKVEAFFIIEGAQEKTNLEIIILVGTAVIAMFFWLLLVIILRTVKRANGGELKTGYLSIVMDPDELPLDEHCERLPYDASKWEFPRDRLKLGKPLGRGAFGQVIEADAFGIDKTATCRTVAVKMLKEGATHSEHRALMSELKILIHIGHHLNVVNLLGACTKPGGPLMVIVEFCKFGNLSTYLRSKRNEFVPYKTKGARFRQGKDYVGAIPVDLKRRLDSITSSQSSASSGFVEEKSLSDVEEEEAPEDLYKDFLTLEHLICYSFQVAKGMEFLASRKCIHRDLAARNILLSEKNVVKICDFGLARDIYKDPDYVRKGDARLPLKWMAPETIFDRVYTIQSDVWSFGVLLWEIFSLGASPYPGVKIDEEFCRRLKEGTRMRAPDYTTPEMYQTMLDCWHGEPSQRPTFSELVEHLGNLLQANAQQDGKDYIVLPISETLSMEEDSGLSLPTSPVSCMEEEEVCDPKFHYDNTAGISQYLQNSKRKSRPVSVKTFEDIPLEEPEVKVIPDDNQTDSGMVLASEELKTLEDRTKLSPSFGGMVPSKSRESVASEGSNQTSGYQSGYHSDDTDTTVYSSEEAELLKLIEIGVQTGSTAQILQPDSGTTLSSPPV

In the data set “physchem [1]”, `CCc1cc(O)c(F)cc1-c1cc(N[C@H](C)CO)c2nc(N)ncc2c1` had a solubility at 4 h of 126 µg/mL (≈ 354 µM). Besides, the apparent permeability coefficient (Papp) at 3 h in the data set “in vitro [2]” amounted to 17 ×10⁻⁶ cm/s.
On to `CC(=O)N1CCC(Cc2cccc3cnc(Nc4cnn(C)c4)nc23)CC1`, for which the results for the pIC50 in data set [3] and in data set [4] were 7.20 and 7.10, respectively. The same compound came in with a kinetic solubility at 1 h in the data set “physchem [5]” of 224 µM (≈ 81.6 µg/mL).
In turn, `CCc1cc(O)c(F)cc1-c1cc(NCC2CCN(C)CC2)c2nc(N)ncc2c1` had a negative logarithm of the IC50 (pIC50) against Aurora kinase B of 5.00. In addition, the concentration in solution in the data set “physchem [1]” (solubility at 4 h) was 108 µg/mL (≈ 264 µM). The compound further gave a Papp at 3 h in “in vitro [2]” of 10 ×10⁻⁶ cm/s.
The compound `CCc1cc(O)c(F)cc1-c1cc(N[C@@H](C)CO)c2nc(NCCCCCN(C)C)ncc2c1` showed a pIC50 against Aurora kinase B of 5.80. The same compound had a CL/F at 12 h in “in vivo [6]” of 106 mL/min/kg. Further, the half-life at 12 h in the data set “in vivo [7]” was 1.9 h. Also, in the data set “physchem [1]”, the solubility at 4 h turned out to be 275 µg/mL (≈ 586 µM). This compound showed a Papp at 3 h in the data set “in vitro [2]” of 13.3 ×10⁻⁶ cm/s. In addition, the half-life at 1 h, 10000 µM in the data set “in vitro [8]” and in “in vitro [9]” was more than 4.28 h throughout.
At Aurora kinase B, `CCc1cc(O)c(F)cc1-c1cc(N[C@@H]2C[C@H]3CC[C@@H](C2)N3)c2nc(N)ncc2c1` showed a negative logarithm of the IC50 (pIC50) of 5.60. Further, the solubility at 4 h in the data set “physchem [1]” was found to be 21 µg/mL (≈ 51.5 µM). The same compound gave a Papp at 3 h in “in vitro [2]” of less than 1 ×10⁻⁶ cm/s.
`CCc1cc(O)c(F)cc1-c1cc(N[C@@H](C)CO)c2nc(NCCCN(C)C)ncc2c1` gave a pIC50 on Aurora kinase B of 5.00. In “physchem [1]”, this compound gave a solubility at 4 h of 983 µg/mL (≈ 2230 µM). In addition, in “in vitro [2]”, the Papp at 3 h worked out at 4.9 ×10⁻⁶ cm/s. The half-life at 1 h, 10000 µM in the data set “in vitro [8]” was more than 4.28 h; in the data set “in vitro [9]”, 3.77 h.
`CCc1cc(O)c(F)cc1-c1cc(N[C@H]2C[C@H]3CC[C@@H](C2)N3)c2nc(N)ncc2c1` had a negative-log IC50 (pIC50) on Aurora kinase B of 5.20. The half-life at 1 h, 10000 µM is 0.0683 h in “in vitro [8]” and 1.9 h in the data set “in vitro [9]”.
`Cn1cc(Nc2ncc3cccc(NC4CCNCC4)c3n2)cn1`: the negative logarithm of the IC50 (pIC50) was 8.10 in [3] and 7.20 in data set [4].
Regarding `CCc1cc(O)c(F)cc1-c1cc(N[C@@H](C)CO)c2[nH]c(N)nc(=O)c2c1`, the pIC50 was 5.80 in data set [3] and 4.90 in data set [4].
`CCc1cc(O)c(F)cc1-c1cc(NC2CCN(C)CC2)c2nc(N)ncc2c1`: the apparent permeability (Papp) at 3 h in “in vitro [2]” turned out to be 14 ×10⁻⁶ cm/s. In the data set “in vitro [9]”, this compound gave a half-life at 1 h, 10000 µM of 1.6 h.
The compound `CCc1cc(O)c(F)cc1-c1cc(OC)c2nc(N)ncc2c1` gave a pIC50 against Aurora kinase B of 5.50. For the same compound, in “physchem [5]”, the solubility (kinetic) at 1 h came out at 103 µM (≈ 32.3 µg/mL). The solubility at 4 h in “physchem [1]” was 14 µg/mL (≈ 44.7 µM). The Papp at 3 h in “in vitro [2]” is 14.5 ×10⁻⁶ cm/s.
In the data set “physchem [1]”, `CCc1cc(O)c(F)cc1-c1cc(NC[C@H](C)O)c2nc(N)ncc2c1` gave a solubility at 4 h of 28 µg/mL (≈ 78.6 µM).
On to `CCc1cc(O)c(F)cc1-c1cc(N[C@@H](C)CO)c2nc(N)ncc2c1`, for which the Papp at 3 h in “in vitro [2]” is 17.6 ×10⁻⁶ cm/s. Besides, the half-life at 1 h, 10000 µM in “in vitro [8]” is 0.0167 h; in “in vitro [9]”, more than 4.28 h. In addition, the solubility at 4 h in “physchem [10]” worked out at 92 µg/mL (≈ 258 µM). Further, in “physchem [11]”, the solubility (thermodynamic) at 4 h amounted to 7 µg/mL (≈ 19.6 µM).
Turning to `CCc1cc(O)c(F)cc1-c1cc(NC[C@@H](C)O)c2nc(N)ncc2c1`, the solubility at 4 h in “physchem [1]” amounted to 57 µg/mL (≈ 160 µM).
For `Cn1cc(Nc2ncc3cccc(CC4CCNCC4)c3n2)cn1`, the pIC50 in data set [3] was 7.90; in data set [4], 7.00. For the same compound, in “physchem [5]”, the solubility (kinetic) at 1 h came to 292 µM (≈ 94.1 µg/mL).
Take `CCc1cc(O)c(F)cc1-c1cc(NCCCO)c2nc(N)ncc2c1`: the pIC50 against Aurora kinase B is 5.10. Besides, the solubility at 4 h in “physchem [1]” was determined as 49 µg/mL (≈ 137 µM). In the data set “in vitro [2]”, this compound showed an apparent permeability coefficient (Papp) at 3 h of 12 ×10⁻⁶ cm/s.
On to `CCc1cc(O)c(F)cc1-c1cc(NC2CCN(C(C)=O)CC2)c2nc(N)ncc2c1`, for which the pIC50 against Aurora kinase B is 4.70; in data set [12], 6.20. The solubility at 4 h in the data set “physchem [1]” was 1 µg/mL (≈ 2.36 µM). In the data set “in vitro [2]”, the apparent permeability coefficient (Papp) at 3 h stood at 6.9 ×10⁻⁶ cm/s.
Take `CCc1cc(O)c(F)cc1-c1cc(N(C)CCO)c2nc(N)ncc2c1`: the pIC50 on Aurora kinase B was 5.10. In “in vitro [2]”, this compound gave an apparent permeability (Papp) at 3 h of 17 ×10⁻⁶ cm/s.
`CCc1cc(O)c(F)cc1-c1cc(NC(CO)CO)c2nc(N)ncc2c1`: the solubility at 4 h in “physchem [1]” turned out to be 65 µg/mL (≈ 175 µM). This compound also returned an apparent permeability coefficient (Papp) at 3 h in the data set “in vitro [2]” of less than 0.3 ×10⁻⁶ cm/s.
Compound `CCc1cc(O)c(F)cc1-c1cc(N[C@H]2CCCN(C)C2)c2nc(N)ncc2c1` showed a negative-log IC50 (pIC50) at Aurora kinase B of 4.80. This compound returned a solubility at 4 h in the data set “physchem [1]” of 168 µg/mL (≈ 425 µM). Further, the Papp at 3 h in “in vitro [2]” is 26 ×10⁻⁶ cm/s. The values for the half-life at 1 h, 10000 µM in “in vitro [8]” and in “in vitro [9]” were 0.0283 h and more than 4.28 h, respectively.
As to `CCc1cc(O)c(F)cc1-c1cc(N[C@@H]2CCCN(C)C2)c2nc(N)ncc2c1`, on Aurora kinase B, the pIC50 is 4.60. In “in vitro [2]”, this compound returned an apparent permeability (Papp) at 3 h of 25 ×10⁻⁶ cm/s.
As to `COc1cc(-c2ccc(O)cc2)cc2cnc(N)nc12`, the negative logarithm of the IC50 (pIC50) against Aurora kinase B was 5.60; in data set [3] it was 7.50.
Consider `CCc1c(-c2cc(OC)c3nc(N)ncc3c2)ccc(O)c1F`, for which the pIC50 is 5.40 on Aurora kinase B and 8.10 in data set [3]. For the same compound, the solubility at 4 h in the data set “physchem [1]” was 64 µg/mL (≈ 204 µM).
As for `CCc1cc(O)c(F)cc1-c1cc(N[C@@H](C)CO)c2nc(NCCOCCN(C)C)ncc2c1`, the negative logarithm of the IC50 (pIC50) at Aurora kinase B was 4.70. Besides, the half-life at 1 h, 10000 µM in the data set “in vitro [8]” and in “in vitro [9]” was more than 4.28 h throughout.
